Laboratory results: US11542275B2, “Substituted imidazolidin-2-one derivatives as PRMT5 inhibitors” (Aurigene Discovery Technologies Limited, priority 2018, dated 2023)

Target: PRMT5/MEP50 Complex (Homo sapiens (Human), UniProt O14744)
Assay: PRMT5 inhibition based on TR-FRET assay
Assay type: biochemical
Conditions: 32 nM PRMT5:MEP50 complex, 50 nM Histone-H4 peptide, 1 μM SAM, 90 minutes at room temperature
Description: Protein arginine methyltransferase 5 (PRMT5) is a type II arginine methyltransferase that catalyze mono- and symmetric demethylation on arginine residues of histone or non-histone proteins in presence of S-adenosylmethionine (AdoMet or SAM) a cofactor responsible for donating the methyl group. PRMT5 is reported to be overexpressed in several human cancers. To identify compounds that inhibit the PRMT5 and decrease its activity, a TR-FRET based assay has been established. Time-resolved fluorescence resonance energy transfer (TR-FRET) HTS assays are homogeneous proximity assays where the interaction of two dye-labeled binding partners is detected by the energy transfer between a donor and an acceptor dye, and the subsequent light emission by the acceptor dye. PRMT5 catalyzes Histone H4 peptide which is biotin tagged to the Lysine amino acid at carboxyl end, in presence of S-adenosyl-1-methionine (SAM) to methylate the peptide. The antibody specific to mono methylated H4 peptide (H4R3) with Ig conjugate binds to the methylated peptide, indirectly binding to the Europium lanthanide. […]
The compound dilutions were prepared as 7.5% DMSO stock solutions in assay buffer. […] The plates were then read on Victor-3 with Excitation at 340 nm and Emissions collected at 615 and 665 nm in TR-FRET protocol. […]

| SMILES | IC50 [nM] |
| --- | --- |
| CC1(C)C(=O)N(Cc2ccc(C3CC3)nc2)C(=O)N1CC(O)CN1CCc2ccccc2C1 (centres unmarked) [Compound 76, 3-((6-cyclopropylpyridin-3-yl)methyl)-1-(3-(3,4-dihydroisoquinolin-2(1H)-yl)-2-hydroxypropyl)-5,5-dimethylimidazolidine-2,4-dione] | 61 |
| O=C1N(Cc2ccc(C3COC3)cn2)CCN1C[C@H](O)CN1CCc2ccccc2C1 [Compound 78, (R)-1-(3-(3,4-dihydroisoquinolin-2(1H)-yl)-2-hydroxypropyl)-3-((5-(oxetan-3-yl)pyridin-2-yl)methyl)imidazolidin-2-one] | 119 |
